Data as given in the supplement of paper PMC11880418.
Counter-ions that a name gives are not always drawn. The list shows a part of the results. The data scatter; read single values as rough. Residues, ends and D or L forms follow the SMILES beside them.

Key:
Assay in all cases: ALDHbr (CSC) cell proportion score relative to DMSO vehicle (ratio to DMSO); breast (SUM159) / gastric (MKN45) / pancreatic (PANC1) / colon cancer lines; ALDHbr cells have high ALDH activity and are rich in cancer stem cells (CSC); higher = more CSC (ALDHbr) cells remaining
Conditions in all cases: 10 µM; 72 h
MKN45 = tested on: MKN45
PANC1 = tested on: PANC1
SUM159 = tested on: SUM159
T84 = tested on: T84
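Also: High-content imaging of ALDEFLUOR-stained cells with Hoechst-labelled nuclei in 384-well plates, triplicate wells, scored as Z-score against 0.1% DMSO vehicle, negative meaning fewer ALDHbr cells.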

SMILES	ALDHbr (MKN45)	ALDHbr (PANC1)	ALDHbr (SUM159)	ALDHbr (T84)
CCN(CC)C(=O)/C(C#N)=C/c1cc(O)c(O)c([N+](=O)[O-])c1 [Entacapone]	0.908	0.792	0.963	0.976
CCOC(=O)C1=C[C@]2(CC)CCCN3CCc4c(n1c1ccccc41)[C@@H]32 [Vinpocetine]	1.15	1.02	0.663	0.898
NCC[C@H](O)C(=O)N[C@@H]1C[C@H](N)[C@@H](O[C@H]2O[C@H](CN)[C@@H](O)[C@H](O)[C@H]2O)[C@H](O)[C@H]1O[C@H]1O[C@H](CO)[C@@H](O)[C@H](N)[C@H]1O [Amikacin hydrate]	1.07	1.04	1.15	1.03
Cn1c(=O)c2c(ncn2CCO)n(C)c1=O [Etofylline]	0.895	0.869	0.895	1.02
CN[C@@H]1[C@H](O)[C@H](NC)[C@H]2O[C@@]3(O)C(=O)C[C@@H](C)O[C@H]3O[C@@H]2[C@H]1O [Spectinomycin dihydrochloride]	0.885	0.694	0.818	0.974
Cc1nccn1CC1CCc2c(c3ccccc3n2C)C1=O (configuration not stated) [Ondansetron Hydrochloride]	0.879	1.01	0.847	0.817
CCOC(=O)O[C@]1(C(=O)COC(=O)CC)CC[C@H]2[C@@H]3CCC4=CC(=O)C=C[C@]4(C)[C@H]3[C@@H](O)C[C@@]21C [Prednicarbate]	1.11	0.612	0.829	0.945
C[N+](C)(C)CCOC(N)=O [Carbachol]	1.05	0.803	0.879	0.921
CN1CCOC(c2ccccc2)c2ccccc2C1 (configuration not stated) [Nefopam hydrochloride]	1.06	1.02	1.01	1.05
Clc1ccc(C(c2ccccc2Cl)C(Cl)Cl)cc1 (configuration not stated) [Mitotane]	0.844	1.1	0.694	1.01
CCC(C)(C)c1ccc(CC(C)CN2C[C@@H](C)O[C@@H](C)C2)cc1 (some centres not stated) [Amorolfine hydrochloride]	0.683	0.93	0.615	0.858
NS(=O)(=O)c1cc2c(cc1C(F)(F)F)NC(Cc1ccccc1)NS2(=O)=O (configuration not stated) [Bendroflumethiazide]	0.959	0.881	1.08	0.987
Cc1cnc(NC(=O)C2=C(O)c3ccccc3S(=O)(=O)N2C)s1 [Meloxicam]	0.964	0.941	0.906	0.965
CC(C)COCC(CN(Cc1ccccc1)c1ccccc1)N1CCCC1 (configuration not stated) [Bepridil hydrochloride]	0.521	0.94	0.515	0.582
CC[N+](CC)(CC)CCC(O)(c1ccccc1)C1CCCCC1 (configuration not stated) [Tridihexethyl chloride]	1.09	0.879	1.17	0.902
COc1cc([S+](C)[O-])ccc1-c1nc2cccnc2[nH]1 (configuration not stated) [Sulmazole]	1.3	0.63	1.24	1.28
CC1Cc2ccccc2N1NC(=O)c1ccc(Cl)c(S(N)(=O)=O)c1 (configuration not stated) [Indapamide]	0.922	0.931	1.06	1.1
C#C[C@]1(O)CC[C@H]2[C@@H]3[C@H](C)CC4=C(CCC(=O)C4)[C@H]3CC[C@@]21C [Tibolone]	0.799	0.939	1.04	0.965
CC(C)(C)NC[C@H](O)COc1nsnc1N1CCOCC1 [Timolol maleate salt]	1.05	0.861	0.968	0.847
CCn1cc(C(=O)O)c(=O)c2cc(F)c(N3CCNCC3)nc21 [Enoxacin]	1.04	1.01	0.872	0.922
CC12CC3CC(C)(C1)CC(N)(C3)C2 [Memantine Hydrochloride]	1.15	1.03	0.822	0.974
CCOC(=O)[C@@](C)(N)Cc1ccc(O)c(O)c1 [Methyldopate hydrochloride]	0.923	0.955	1.09	0.795
Cc1c(F)c(N2CCNC(C)C2)cc2c1c(=O)c(C(=O)O)cn2C1CC1 (configuration not stated) [Grepafloxacin]	1.06	0.833	0.827	0.8
CCOC(=O)O[C@]1(C(=O)OCCl)CC[C@H]2[C@@H]3CCC4=CC(=O)C=C[C@]4(C)[C@H]3[C@@H](O)C[C@@]21C [Loteprednol etabonate]	0.983	0.647	0.683	0.931
CCOc1ccc2ccccc2c1C(=O)N[C@@H]1C(=O)N2[C@@H]1SC(C)(C)[C@@H]2C(=O)O [Nafcillin sodium salt monohydrate]	0.797	0.969	1.19	0.97
CC[C@]12CCCN3CCc4c(n(c5ccccc45)[C@@](O)(C(=O)OC)C1)[C@@H]32 [Vincamine]	0.964	1.05	0.821	0.925
Cc1cn([C@H]2C=C[C@@H](CO)O2)c(=O)[nH]c1=O [Stavudine]	0.921	0.942	1.97	1.07

SMILES	ALDHbr (MKN45)	ALDHbr (PANC1)	ALDHbr (SUM159)	ALDHbr (T84)
C#CCN(C)Cc1ccccc1 [Pargyline hydrochloride]	0.967	0.831	0.92	0.988
C#C[C@]1(OC(C)=O)CC[C@H]2[C@@H]3CCC4=C[C@@H](OC(C)=O)CC[C@@H]4[C@H]3CC[C@@]21C [Ethynodiol diacetate]	0.598	1.08	2.05	0.977
CO[C@H]1/C=C/O[C@@]2(C)Oc3c(C)c(O)c4c(O)c(c5c(nc6cc(C)ccn65)c4c3C2=O)NC(=O)/C(C)=C\C=C\[C@H](C)[C@H](O)[C@@H](C)[C@@H](O)[C@@H](C)[C@H](OC(C)=O)[C@@H]1C [Rifaximin]	1.04	0.969	0.793	0.875
CN(c1nccc(=O)[nH]1)C1CCN(c2nc3ccccc3n2Cc2ccc(F)cc2)CC1 [Mizolastine]	1.19	0.575	0.779	0.997
CC=CC(=O)N(CC)c1ccccc1C [Crotamiton]	0.94	1.07	1.27	1.08
C=CC1=C(C(=O)O)N2C(=O)[C@@H](NC(=O)/C(=N\O)c3csc(N)n3)[C@H]2SC1 [Cefdinir]	1.04	0.963	0.911	0.92
CN1C(C)(C)CCCC1(C)C [Pempidine]	0.883	0.997	0.997	0.971
Nc1nc(=O)c2nc(CNc3ccc(C(=O)N[C@@H](CCC(=O)O)C(=O)O)cc3)cnc2[nH]1 [Folic acid]	1.06	0.884	1	0.939
CC[C@H]1OC(=O)[C@H](C)[C@@H](O[C@H]2C[C@@](C)(OC)[C@@H](O)[C@H](C)O2)[C@H](C)[C@@H](O[C@@H]2O[C@H](C)C[C@H](N(C)C)[C@H]2O)[C@](C)(O)C[C@@H](C)[C@@H]2N[C@@H](COCCOC)O[C@H]([C@H]2C)[C@]1(C)O [Dirithromycin]	1.18	0.744	1.08	0.946
CC(=O)N[C@@H](CC(=O)O)C(=O)N[C@@H](CCC(=O)O)C(=O)O [Spaglumic acid] (Ac-Asp-Glu-OH)	1.32	1.12	1.29	0.877
Nc1nnc(-c2cccc(Cl)c2Cl)c(N)n1 [Lamotrigine]	1.08	0.952	0.861	0.975
Nc1ncnc2c1ncn2[C@@H]1O[C@H](CO)[C@@H](O)[C@@H]1O [Vidarabine]	0.886	0.877	1.9	0.903
CN[C@@H]1[C@H](O[C@H]2[C@H](O[C@H]3[C@H](O)[C@@H](O)[C@H](NC(=N)N)[C@@H](O)[C@@H]3NC(=N)N)O[C@@H](C)[C@]2(O)CO)O[C@@H](CO)[C@H](O)[C@H]1O [Dihydrostreptomycin sulfate]	1.22	0.894	1.06	1.06
COc1ccc(C[C@@H]2c3cc(OC)c(OC)cc3CC[N@+]2(C)CCC(=O)OCCCCCOC(=O)CC[N@@+]2(C)CCc3cc(OC)c(OC)cc3[C@H]2Cc2ccc(OC)c(OC)c2)cc1OC [Cisatracurium besylate]	0.66	0.713	0.314	0.811
C[C@]12CC[C@@H]3c4ccc(O)cc4CC[C@H]3[C@@H]1C[C@@H](O)[C@@H]2O [Estriol]	1.06	0.802	1.05	0.875
C[N+]1(C)CCC(OC(=O)C(O)(c2ccccc2)C2CCCC2)C1 (configuration not stated) [Glycopyrrolate]	0.963	0.91	1.17	0.895
CNCCCN1c2ccccc2CCc2ccccc21 [Desipramine hydrochloride]	0.984	0.968	0.759	0.674
N=C(N)NCC1COC2(CCCCC2)O1 (configuration not stated) [Guanadrel sulfate]	0.972	0.925	1.11	1.01
CCc1cccc2c3c([nH]c12)C(CC)(CC(=O)O)OCC3 (configuration not stated) [Etodolac]	1.27	1.28	1.31	1.1
O=C(O)c1cn(C2CC2)c2cc(N3CCNCC3)c(F)cc2c1=O [Ciprofloxacin hydrochloride monohydrate]	0.868	0.86	1.04	0.896
CCCc1ncc(C[n+]2ccccc2C)c(N)n1 [Amprolium hydrochloride]	0.894	1.06	0.961	0.848
Cc1ccc(C)c(OCCCC(C)(C)C(=O)O)c1 [Gemfibrozil]	1.03	0.844	0.934	0.861
O=C(CCCN1CCN(c2ccccn2)CC1)c1ccc(F)cc1 [Azaperone]	1.01	0.843	1.01	1.13
COc1ccc2[nH]c([S+]([O-])Cc3ncc(C)c(OC)c3C)nc2c1 (configuration not stated) [Omeprazole]	1.27	0.888	0.825	0.791
COc1ccccc1OCCNCC(O)COc1cccc2[nH]c3ccccc3c12 (configuration not stated) [Carvedilol]	1.55	0.848	0.749	0.474
CCn1cc(C(=O)O)c(=O)c2cc(F)c(N3CCNCC3)cc21 [Norfloxacin]	0.467	0.726	0.99	0.63
